Laboratory results taken from the RNAGym collection of RNA variant scans (doi:10.7554/elife.90254).
Read counts are not given, so values of variants with three or more changes are uncertain.

B1: LINE1-mini (parent)
chain: GGCAGAGCUCAACACAGCGUGGCAAAGUGGCUGUGGCUAGACUGCC

Variants of: B1
Assay: self-cleavage, relative activity (ratio to wild type); higher = more cleavage; in vitro, sequencing; the parent is a self-cleaving ribozyme

Variant	self-cleavage
U20G C42U C46U	0.03
G21A C23A C42U C46U	0.13
G21C U38G C42G	0
U20G A24U G30C	0.7
U20G U28G G40U	0.04
U20C G29A U38A	0.13
G21U A26U G27C	0.41
G21C G33A G44C	0.02
G21C C23A G36U G40U C46G	0.94
G21A A24U G30C G36C	0.13
G21A G30U G40A	0.06
U20G A26U G27C U28G U32C	0.18
G21U G22U G40U	0.09
U20G G40U A41U C45G	0.03
U20G G29A G35C	0.08
G21U C37G A39G	0.02
G21C C23G A24C A26C G29C	1.68
G21A A26U G36A G40A	0.36
U20G A25U U28G	0.45
U20G G22A G30A G33C G36C	0.03
G21C G40A C46A	0.06
G21U C31A G35C	0.02
G21U A26G G29U	0.26
U20G G22A C42A	0.05

Variant	self-cleavage
U20C G21U U43A	0.33
G21A G30C G33U	0.06
U20G G33U U34A	0.08
U20G A25G G29A U34A	0.04
U20C G27C C31A	0.08
U20C G29C U38A	0.05
U20C G29C U38G	0.01
U20G G22U U28A	0.19
G21C G35U G36U	0.26
G21A A24C G30C C37A G44U C46A	0.02
G21A U28G U32C G44A	0.07
G21U A26G C42G	0.03
G21A A25U G40U G44C	0.82
U20G C23U A25C U34A G36A	0.03
U20C G33C G36A	0.02
G21A C23U A25U U32C	0.92
G21U A26C G36U	0.05
U20G G22C G30U A39C	0
G21U C23U G30C C45U	0.36
G21C U38A A41C	0.02
U20C U28G C37G C42G	0.01
U20G C31U G33A	0.04
G21A G22A C31G G36C	0.04
G21A C42G G44C	0.08

Variant	self-cleavage
U20G C23U A26U	0.64
U20C G22U A24U G27C G36U	0.01
G21A G22A C31U	0.29
G21A G29U C42G	0.18
G21A U32G G33U	0.06
G21C A25G U28G G36U	0.01
G21A G29A C45G	1.54
U20C G27C G40U	0.04
G21C C23U G33A U38A	0.23
G21C G29A C42U	0.41
G21U A24G U28G A39U	0.21
G21C C23G G27U C31U G40A C45U	0.01
G21C A24G U28G G36A U43C	0.04
G21C G27U G33C A39G G40U	0.13
G21C A24C G44U	0.11
G21U C31G A41U	0.07
G21A C37U A39G C45U	0.03
G21C C31U C42A	0
G21C A26C G40U	0.14
G21U G22U C31U G36A	0.17
G21U G22A U32A	0.19
U20C G33U G36C	0.01
G21U C23A U32C G33U G35U	0.01
G21C G40C G44U	0.02

Variant	self-cleavage
G21A G22A C23A U43G	0
U20G G21A A25C G30U A41G	0
G21U C37A U43G	0
U20C G22U C23A G30U U43A	0.09
G21U G22U C42G	0.02
G21A G29U C37U A39G	0
G21A G27C U38C C42A	0.09
U20C G27U G36U C37G	0.02
G21U C23G A24C A39U G40U C45G	0.04
U20G A25U A39G A41U	0.02
U20G G22A A26G	0.27
G21C G22U U38A	0.01
U20G A25U G27A	0.93
U20G U28G C42A	0.12
G21U A26U C45G	0.07
G21C A39G C45U	0.14
G21A C23U A25U A26G	0.59
G21A U34C G35U C37A	0.23
U20G A26C U32C	0.03
G21U C23A U38A	0.57
G21U A26U G33U	0.47
G21A G40C C45A	0.1
G21A G33C U38A	0.05
U20G G33U C37U C45G	0.02

Variant	self-cleavage
G21C A26C G36A	0.23
U20C G36A C42U	0.02
G21A A26U C37A C45G	0.08
G21A A25G G33A	0.06
U20C G22C U38G	0
U20C G30A G40U	0.02
U20G C23G A41U	1.03
G21C A39U G40A C45G	0.02
G21C G22C A24U A41U	1.45
G21A A24G C37A G40U	0.37
G21A G33U C37U	0.05
U20G A26G G44A	0.04
G21C G27U G29C	0.15
U20C G29C C46U	0.14
G21U A26C G33U	0.13
G21A A24C C42G	0.12
U20G C31U C46G	0
G21C C23A G27U G35U	0.07
U20G G35A C37G	0.01
G21A C23A C45A	0.59
G21A G35C A41C	0.02
G21A A25C G27C U28A	0.4
G21A A25C C42G	0.05
U20G U28G C31U U38G	0.01

Variant	self-cleavage
G21U G22U U38C	1.1
G21C C23U C42G	0.02
U20C G22U G40C	0.04
U20G U28G A41C	0.02
G21A U32C G33C	0.03
G21U A26U U34G	0.17
G21A C23U A24C A41C	0.07
U20G A26U U38A	0.44
G21A G22U U28G	0.57
U20G G21C U34A	0.08
U20G C23U C37G G44C C45A C46A	0.02
U20C G29U U34C U38A	0.03
G21U C23U G33U	0.19
G21U C23U G35U U38A	0.32
U20G A26U A41C	0.05
U20C U43G C45G	0
G21U A26G G27A C37U	0.01
U20G G22C G33A C46G	0.09
U20G G22A G40A	0.1
G21A G29U A41U	0.74
G21C C31G G40A	0.02
G21C G27A C31U U38G	0.02
G21C A26G G27A	0.58
G21U A25G A26G	0.11

Variant	self-cleavage
G21A A26U G30U G33U	0.37
G21A G29U G33U C42G	0.05
U20G U28C U34C	0.2
G21A U28G C37U	0.03
U20G G40A C42G	0.03
U20G G21A U38A A41C	0.03
U20C G33A A39C	0.01
G21C C31U G40U C42U	0.03
U20G G35A A41G	0.06
G21C G22U C46G	0.36
U20G G21U U28G	0.47
G21A G29A U32G G33U C42U	0.03
G21C U34C A39G	0.09
G21C G35C C46A	0.18
G21U C23G C37G	0.04
U20C U28A G30A	1.02
G21C G22U A25C	0.6
G21C G30A C31A A39G	0.12
G21A U32C U38C	0.06
G21C C23A A25G C42U	0.12
G21A U34A G35A C46A	0.01
U20C U32G C42G C45A	0
U20G A24U A26C G35A A39U U43C C45A	0.02
